Laboratory results from US20140171510A1, “HO[…] AND/OR CONJUGATES OF AMPHETAMINE AND OTHER […] PROCESSES FOR MAKING AND USING THE SAME” (priority 2011, published 2014).

Experiment: In vitro hydrolysis of the amide linkage (chemical stability)

## l-homoarginine-d-amphetamine [hArg-Amp]
  chemical stability to in vitro hydrolysis of the amide linkage: chemically stable
